Assay results: the supplement of paper PMC3334620
The full ranking holds about 33,000 sequences; the median of “E-score (-0.5 to 0.5)” is about -0.016, and the highest 2% start at about 0.31. The list shows a part of the results.

These sequences were tested against Cst6 (UniProt P40535) (assay: PBM E-score (8-mer binding enrichment) (E-score (-0.5 to 0.5)); higher = stronger / more preferred TF binding; most listed sequences are background and not binding sites). Settings: protein concentration: 200 nM; construct: GST-DNA-binding domain.
Procedure, shortened: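 For each ungapped eight-base word taken together with its reverse complement, the Universal PBM Analysis Suite assigned an E-score. Binding data came from GST-tagged yeast transcription factors, applied at about 100-200 nM, on universal all-10-mer Agilent arrays made double-stranded by primer extension. Fluorescent anti-GST marked bound protein, and scans were normalised with masliner.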

Sequence	PBM E-score
ACAGCCTG	-0.0809
CGGCACAC	0.177
CATGATGG	-0.0379
CCCTAAAA	-0.118
GTCGGCCA	-0.235
ACCAAGCG	-0.203
CCGATCAA	-0.212
GGATGAAC	-0.118
TAATAGTA	0.23
ATCGGAAG	0.0884
CCTAGGAG	-0.214
GGGCGGAA	-0.215
AACGGACT	-0.318
ACGGCACA	0.327
ACATCCAA	0.131
GTCCTCCA	-0.257
GTTTATTA	0.164
CAGGGAGC	-0.25
CATAACTA	0.199
GAGGAGAA	-0.168
CGGGTACG	-0.171
CTTAGCCA	-0.021
CTCAGTGC	-0.0726
CAGAGCTA	-0.217

Sequence	PBM E-score
AAAAGATT	0.0616
CGCACAAG	-0.113
CAATACAA	0.15
GGTGCCTA	-0.0594
CACATTTC	0.131
AGTAACAC	-0.00261
CTCGGGAA	-0.117
CTAGCGCA	-0.235
CCAGACTA	-0.27
TACATGTA	0.105
CCCCCCAC	-0.394
CCAATTAG	0.0724
ATGGGACC	-0.139
CTTCCCCC	-0.314
ATGCATAC	0.11
CATGCCAA	0.0621
ATGAAAGA	0.175
AACTCCCG	-0.0902
TTACTCAA	0.133
ACTCGGCC	-0.144
GAGCCATC	-0.056
CCACGAAA	0.0402
CCCTCCCG	-0.249
CGACTCCG	-0.314

Sequence	PBM E-score
TGGGCAAA	-0.0373
AAATAATC	0.178
ACGCGTTC	-0.041
AAAGCGCA	-0.146
CTAAAATA	0.18
CCTTTACC	-0.194
CGATTGCG	0.11
ACTTGATA	0.0974
CTGCGCCC	-0.302
ATGTAGTG	0.0861
GTTATAAA	0.269
CTCACAGA	-0.0236
AGTTGCAG	-0.115
GTTAGTAA	0.0396
AAGACTTG	-0.108
AGTGGTGA	0.241
AGCCATAG	-0.226
CCGGACGC	8e-05
ACAAAACA	0.205
GTCAATAA	0.155
TATGATGA	0.337
ACCTTATG	-0.00272
CGCTACAA	0.0279
CGGAGATC	-0.205

Sequence	PBM E-score
CAACTCTA	-0.125
ATGTGGCA	0.152
AGTTCGCC	0.0158
AATGCTAG	-0.0907
CGGACGGC	0.136
AAGCGATA	0.1
AAGTAATG	0.116
GTAAAGCA	0.167
ATAAATAC	0.299
CCGGGCCA	-0.203
GACCCGTA	-0.015
CTGAGTGC	-0.153
CTACTAAA	0.0911
CTTGGTTA	-0.017
GCGGGCGA	-0.0322
AAGTTTTG	0.14
CGAAACGA	0.115
CAGTCGGA	-0.255
AGATCTAC	-0.11
ATAGATGC	-0.0272
GGATTTAC	0.119
CCCCACGG	-0.0769
